Our source for the binding signal values is article PMC6212790.

Some of the results follow. At the low end of the ranking the order means little.

In this experiment the target is T1, GST-Rok (full length) (UniProt O34857).
T1 sequence: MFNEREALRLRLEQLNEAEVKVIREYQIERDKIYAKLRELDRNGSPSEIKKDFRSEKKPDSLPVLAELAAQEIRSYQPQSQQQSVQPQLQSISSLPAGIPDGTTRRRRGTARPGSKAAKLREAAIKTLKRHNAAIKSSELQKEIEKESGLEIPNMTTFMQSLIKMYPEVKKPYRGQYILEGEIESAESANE
Briefly: protein binding microarray.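 Also: rank score from −0.5 (least bound) to 0.5 (best bound).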 The conditions noted are these: Rok is a gene silencer of Bacillus subtilis; high values mean tight binding; most listed sequences are background and not binding sites; double strand, one strand shown.
For the sequence AAAAAGGA, the binding signal is 0.0196 E-score.
As for CGAGCTAG, the figure is 0.0183 E-score.
The result for CTCACTAC reads 0.0506 E-score; that for GCGATAGA, 0.147 E-score.
As for AACGTAGA, the figure is 0.17 E-score.
In the case of GGCCGTGA, the binding signal is -0.193 E-score.
Take GGACGTAC: the binding signal was found to be 0.148 E-score.
As to AGCGAGAT, the binding signal was -0.0459 E-score.
In the case of CTTAACGC, the binding signal was -0.115 E-score.
For the sequence GCAGACTA, the binding signal stood at 0.182 E-score.
In turn, AACAAGAG yielded a binding signal of -0.0498 E-score.
The result for CAATGTTA reads 0.168 E-score; that for AACGACTA, -0.0589 E-score.
The result for CTATAGCA reads 0.248 E-score; that for GGCAGACA, 0.189 E-score.
As to ACAACACG, the binding signal was 0.119 E-score.
The result for GCTTGGTA reads -0.113 E-score.
Consider CTAAAGTC, for which the binding signal is -0.015 E-score.
The sequence ACGAGTAA displayed a binding signal of 0.032 E-score.
The result for GTGAGCCA reads -0.191 E-score; that for CGGCGGAG, -0.273 E-score; that for TGGGAGAA, -0.0223 E-score.
For CGAATGTA, the binding signal was 0.266 E-score.
The result for GGCAATCA reads -0.201 E-score; that for AGGACAAA, -0.101 E-score; that for GTTCTGGA, 0.103 E-score.
As for CAATATCA, the figure is 0.183 E-score.
As for CGCAGACA, the figure is -0.162 E-score; as for TACCAATA, 0.298 E-score; as for CGCCCCGC, -0.303 E-score.
CGTGGCTA: the binding signal is -0.0463 E-score.
As for ATCAGGCG, the figure is -0.0124 E-score; as for TAATAAGA, 0.313 E-score.
In turn, TACTGATA showed a binding signal of 0.21 E-score.
Consider GATCGGTA, for which the binding signal is 0.191 E-score.
As for GAAGAGCA, the figure is -0.0453 E-score; as for ATCGGTAG, 0.112 E-score; as for CACCCGGA, -0.283 E-score.
In turn, CGAAGTCG came in with a binding signal of -0.202 E-score.
The result for TATCCGAA reads 0.168 E-score.
In turn, CACAGACA registered a binding signal of -0.127 E-score.
For ATGTGCGC, the binding signal stood at 0.0412 E-score.
As for CCCAGCGC, the figure is -0.157 E-score; as for AACTCCGT, -0.0118 E-score; as for GAGTAGCC, -0.281 E-score.
CCTGGCGA returned a binding signal of -0.199 E-score.
AATAACGT: the binding signal amounted to 0.171 E-score.
As for ACTACATC, the figure is 0.313 E-score.
As for GTACAGCA, the figure is 0.182 E-score; as for TCTGAACA, -0.114 E-score.
The result for GCAAAGCC reads -0.258 E-score.
With AGCGTTTC, the binding signal is -0.165 E-score.
As for CGGTAAGC, the figure is 0.0366 E-score; as for GAAATGTC, 0.126 E-score.
The result for CGGATAGA reads 0.159 E-score.
In the case of AACGAAAA, the binding signal is -0.131 E-score.
As for AGCACCAT, the figure is -0.194 E-score; as for CGAGGGGC, -0.323 E-score; as for CTCAAGTC, -0.0485 E-score.
In turn, ACTACATG showed a binding signal of 0.318 E-score.
ACAGCTTC showed a binding signal of -0.106 E-score.
As for CATAGTTA, the figure is 0.244 E-score; as for GCGTTACA, -0.00982 E-score; as for ATAGATAG, 0.34 E-score.
As for ATAGTTGG, the figure is 0.0271 E-score; as for ACAGCCTG, -0.158 E-score.
The result for ACAGCAAA reads 0.0227 E-score.
ACTAGACT displayed a binding signal of -0.0178 E-score.
The sequence ATAGAAGA showed a binding signal of 0.193 E-score.
Sequence CCACGTGC had a binding signal of -0.341 E-score.
As for GTAACAAC, the figure is 0.184 E-score; as for AATCTGGA, -0.0405 E-score.
As for CAGAAACC, the figure is -0.0891 E-score.
As for TGGAGGAA, the figure is -0.24 E-score.
As for CGGTTTTA, the binding signal is -0.0298 E-score.
For ACCACTGC, the binding signal was -0.117 E-score.
Turning to CCACAGGC, the binding signal is -0.15 E-score.
CTTGGAGA showed a binding signal of -0.0489 E-score.
The result for AGTAAGTC reads 0.21 E-score; that for ACATTACA, 0.24 E-score.
As for AGTGTCAG, the figure is -0.0514 E-score; as for CTATTGAG, 0.168 E-score.
As for GATAGACA, the binding signal is -0.0476 E-score.
In turn, CCCGGGCA returned a binding signal of -0.34 E-score.
As for ACCCGGGG, the figure is -0.283 E-score; as for AATTAACT, 0.281 E-score; as for GAATAGTA, 0.285 E-score.
As for TCAACCGA, the binding signal is -0.14 E-score.
For CAGCGGAC, the binding signal came out at 0.00328 E-score.
ATTTCGTC showed a binding signal of -0.0446 E-score.
Sequence AGATGTCG returned a binding signal of -0.231 E-score.
The result for ACAATTCT reads 0.149 E-score.
Take AATTTTGA: the binding signal came to 0.198 E-score.
As for GACGATGC, the figure is -0.106 E-score.
CCACGTAC: the binding signal is -0.0772 E-score.
The sequence ATAAATAC had a binding signal of 0.276 E-score.
With AAGTGTAA, the binding signal is 0.235 E-score.
As for ATACTTTG, the figure is 0.219 E-score; as for CGAGATAA, 0.0171 E-score; as for CTACTGTA, 0.343 E-score.
In turn, ACCATGCC gave a binding signal of -0.248 E-score.
As for AGTTATCA, the binding signal amounted to 0.253 E-score.
GACTAATA registered a binding signal of 0.225 E-score.
Sequence ACTGAACA displayed a binding signal of 0.0437 E-score.
In turn, CAACCTGG displayed a binding signal of -0.208 E-score.
The sequence CAGTTTCC displayed a binding signal of -0.109 E-score.
The result for GGGGGGAC reads -0.358 E-score; that for CAATAGTG, 0.287 E-score.
As for CCGGGACA, the figure is -0.126 E-score.
